# “And” between values parts separate entries of the source, which are not always exact repeats. Identical values can stand only once. The whole screen tested about 73,000 compounds, of which about 2,500 (3.4%) were called active. Inconclusive results, whose numbers are uncertain, are shown with a selection of clear calls. Calls come from the whole dose curve; as a rule, active = well fitted inhibition curve with a large enough effect; inconclusive = small, poorly fitted or top-dose-only effect; inactive = no such curve, though single readings can be large or run the other way. Potencies beside an inconclusive call are fits to weak or partial responses and may not hold up.
# Molecular target: 3-hydroxyacyl-CoA dehydrogenase type-2 (Homo sapiens) (UniProt Q99714)
# Sequence of UniProt Q99714 (Q99714 whole entry, looked up): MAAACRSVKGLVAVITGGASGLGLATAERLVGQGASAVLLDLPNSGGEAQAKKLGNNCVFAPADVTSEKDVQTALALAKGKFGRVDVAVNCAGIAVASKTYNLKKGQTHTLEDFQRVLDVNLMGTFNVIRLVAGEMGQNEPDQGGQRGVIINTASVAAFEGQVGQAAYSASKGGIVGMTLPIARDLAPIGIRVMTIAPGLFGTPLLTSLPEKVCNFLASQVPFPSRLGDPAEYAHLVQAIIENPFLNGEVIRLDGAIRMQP
# Sequence of UniProt Q99714 (Q99714 whole entry, looked up): as above
# Assay: qHTS Assay for Inhibitors of HADH2 (Hydroxyacyl-Coenzyme A Dehydrogenase, Type II); note: nearly all actives have a fitted effect of over 60% in size
# Settings: recombinant HADH2, NADH fluorescence, beta-hydroxybutyryl-CoA; activity change, negative = inhibition: at 57.1 µM (top of the series)
# Summary of the method: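 NADH fluorescence (ex 360/em 450 nm) read every 30 s for 4 min; activity taken as last-minus-first time point difference. Enzyme 20 nM, NAD+ 1 mM, beta-hydroxybutyryl-CoA 90 uM, pH 9.0 Tris buffer.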
# % is set by controls: 0 for no effect and ±100 for the full control effect; potency is the fitted concentration of half-maximal effect; tags give direction and shape of the fitted curve.
SMILES,Potency,"activity change, negative = inhibition"
COc1cc2c(cc1OC)-c1cc(NC3CCCC3)nc(=O)n1CC2,"inconclusive: 31.6 µM [inhibitor, single point]",
CN(CCc1ccccn1)S(=O)(=O)c1ccccc1F,"inconclusive: 0.199 µM [inhibitor, single point]",
O=C(c1nc2ccccc2s1)N1CCN(c2ccccn2)CC1,"inconclusive: 39.8 µM [inhibitor, single point]",
CC(=O)Oc1cc2oc(=O)cc(C)c2cc1OC(C)=O,active: 25.1 µM,
CCOC(=O)CNc1c(-c2ccc(F)cc2)nc2cnccn12,active: 31.6 µM,
CC(C)CCn1c(SCCc2ccccc2)nc2c1c(=O)[nH]c(=O)n2C,"inconclusive: 39.8 µM [inhibitor, single point]",
Cc1nc2ccccc2c2nc3ccccc3n12,"inconclusive: 39.8 µM [inhibitor, single point]",
Cc1[nH]nc(-c2ccc(O)c(C)c2O)c1-c1cnn(-c2ccccc2)c1,"inconclusive: 15.8 µM [inhibitor, partial curve]",
Cc1noc(C)c1-c1nc(NCc2cccnc2)c2ccccc2n1,"inconclusive: 39.8 µM [inhibitor, single point]",
Cc1c(C(=O)O)nc(/C=C\C(=O)O)[nH]c1=O,,inactive: 4.29% [at 11.4 µM]
CO[C@@H]1COC(=O)CC=C[C@@H](C)[C@@H]2C=C[C@@H](O)[C@@H](COC(=O)C/C=C\[C@H]1C)O2,,inactive: 8.56% [at 11.4 µM]
CC(C)C(c1nnnn1Cc1ccccc1)N(CCCO)Cc1cc2cc3c(cc2[nH]c1=O)OCO3 (configuration not stated),,inactive: -1.47%
CCOC(=O)c1c(C)n(O)c2ccc(Cl)cc2c1=O,"inconclusive: 20 µM [inhibitor, partial curve]",
Clc1ccccc1-c1nccc(NCc2cccs2)n1,,inactive: 13.3%
CN(C)S(=O)(=O)c1ccc(C(=O)Oc2cc(=O)[nH]c3ccccc23)cc1,"inconclusive: 12.6 µM [inhibitor, partial curve]",
COc1ccccc1Nc1ncccc1C(=O)O,,inactive: -16.6%
NC(=O)CSc1nnc(-c2cc3ccccc3o2)n1Cc1ccccc1,"inconclusive: 39.8 µM [inhibitor, single point]",
COc1ccc(-c2nc(S(=O)(=O)c3ccc(C)cc3)c(N3CCCC3)o2)cc1,"inconclusive: 0.631 µM [inhibitor, full curve, poor fit]",
COCc1cc(C)nc(SCC(=O)N2CCC(C)CC2)c1C#N,"inconclusive: 7.94 µM [inhibitor, single point]",
Cn1c(/C=N/n2cnnc2)nc2ccccc21,"inconclusive: 5.01 µM [inhibitor, single point]",
Cc1sc(NC(=O)C2CCCO2)c(C#N)c1C (configuration not stated),"inconclusive: 20 µM [inhibitor, partial curve]",
COC(=O)N1CCC[C@@]2(CCN(Cc3cc(C(F)(F)F)cc(C(F)(F)F)c3)C2)C1,,inactive: -8.49%
Cc1cccc(-c2nsc(SCC(=O)N3CCCC3)n2)c1,"inconclusive: 31.6 µM [inhibitor, single point]",
Cc1nc(SCN2C(=O)c3ccccc3C2=O)n[nH]1,"inconclusive: 3.98 µM [inhibitor, single point]",

SMILES,Potency,"activity change, negative = inhibition"
S=C(CSc1ccccc1)Nc1cccc2ccccc12,"inconclusive: 6.31 µM [inhibitor, single point]",
CCN(CC)CCc1c(C)[nH]c(C(=O)OCc2ccccc2)c1C,,inactive: 2.03%
CC(=O)Nc1ccc(Oc2cc(C#N)c(C#N)cc2N2CCCCCC2)cc1,"inconclusive: 39.8 µM [inhibitor, single point]",
Oc1cc2c(cc1O)[C@H](c1ccccc1)CNCC2,"inconclusive: 501 nM [inhibitor, full curve] and inconclusive: 126 nM [inhibitor, full curve, poor fit]",
COCCNc1nc(-n2nc(C)cc2C)nc2sc3c(c12)CCCC3,"inconclusive: 31.6 µM [inhibitor, single point]",
CCOC(=O)c1nn(-c2ccccc2C)c(=O)c(C#N)c1C,,inactive: -1.21%
COc1ccccc1NS(=O)(=O)c1ccc2oc(SC3CCOC3=O)nc2c1 (configuration not stated),"inconclusive: 12.6 µM [inhibitor, partial curve]",
COc1nc(-c2ccc(C)cc2)ccc1-c1noc(-c2ccco2)n1,active: 15.8 µM,
CCNc1ccccc1,,inactive: 6.88%
COC(=O)NC(/C(C(=O)OC)=C(\C)NCc1ccccc1)c1ccco1 (configuration not stated),,inactive: 10.9% [at 11.4 µM]
COc1cccc(N(C(=O)c2cccs2)c2nc3ccccc3s2)c1,,inactive: 186%
COC(=O)c1c(NC(=O)c2cccs2)sc2c1CCC(C)C2 (configuration not stated),"inconclusive: 31.6 µM [inhibitor, single point]",
NCCCCCc1nnc(SCC(=O)c2ccc(Cl)cc2)o1,"inconclusive: 7.94 µM [inhibitor, single point]",
CCOc1ccc(C2C(C(=O)OC)=CN(CCOC)C=C2C(=O)OC)cc1,active: 31.6 µM,
COc1cc2[nH]c(=O)n(CCC(=O)NC3CCN(Cc4ccccc4)CC3)c(=O)c2cc1OC,"inconclusive: 39.8 µM [inhibitor, single point]",
CCOC(=O)c1[nH]c2cc(OC)c(OC)cc2c1NC(=O)CN1CCN(C)CC1,active: 31.6 µM,
O=C(CCNS(=O)(=O)c1ccc(Cl)cc1)N1CCC2(O)CCCCC2C1 (configuration not stated),"inconclusive: 6.31 µM [inhibitor, single point]",
Cc1nnc(SCCn2c(N3CCCC(C)C3)nc3c2c(=O)n(C)c(=O)n3C)s1 (configuration not stated),,inactive: -16.9%
O=c1c(O)c(-c2ccc(O)cc2O)oc2cc(O)cc(O)c12,active: 12.6 µM and active: 10 µM,
Nc1ccc(-c2nnc(-c3ccc(-c4ccccc4)cc3)o2)cc1,active: 31.6 µM,
COc1cccc2c(=O)c(C/C=C(/C)Cl)c(C)[nH]c12,active: 31.6 µM,
Cc1cccc(C)c1NC(=O)Nc1cccs1,"inconclusive: 39.8 µM [inhibitor, single point]",
CC(Cc1ccccc1)C(=O)N1CCN(C)CC1 (configuration not stated),"inconclusive: 6.31 µM [inhibitor, single point]",

# From PubChem BioAssay AID886 (National Center for Advancing Translational Sciences (NCATS), 2007)
